# In the BET-seq Pho4 binding data (Le et al. 2018):
# This is one part of the list. Values were computed here from the reads of four pooled replicates and scatter widely.
# Target: T1, Pho4 (S. cerevisiae) (UniProt P07270)
# T1 sequence: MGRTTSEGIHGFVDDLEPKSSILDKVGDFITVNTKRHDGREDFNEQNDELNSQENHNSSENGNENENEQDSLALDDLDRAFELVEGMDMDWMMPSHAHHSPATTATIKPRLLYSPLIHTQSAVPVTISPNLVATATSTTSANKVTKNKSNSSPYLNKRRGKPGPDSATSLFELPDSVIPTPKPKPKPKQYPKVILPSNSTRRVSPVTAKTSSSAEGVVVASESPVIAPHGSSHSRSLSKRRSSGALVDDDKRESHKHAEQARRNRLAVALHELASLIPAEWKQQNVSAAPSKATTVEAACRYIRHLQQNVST
# Experiment: relative binding free energy (BET-seq); higher = weaker binding
# Settings: reference: library average
row,Sequence,relative binding free energy [kcal/mol]
1,TTGTGCACGTGGACAG,-0.06
2,ACCTGCACGTGGGTGG,-0.12
3,GGGACCACGTGGCGGT,-0.12
4,TATGTCACGTGGTGTC,-0.03
5,TGCGGCACGTGACTTG,0.04
6,AGGGGCACGTGATTGT,0.08
7,GGAGCCACGTGTTTGT,0.14
8,AATTGCACGTGAATTG,0.31
9,TAGAGCACGTGGATCG,0.01
10,ATGATCACGTGGTGTA,0.12
11,TGTTACACGTGACTTG,0.18
12,GTTTTCACGTGAGCTT,0.31
13,ATCAACACGTGGTTGG,0
14,TTTCTCACGTGGAGGA,0.29
15,GGTCTCACGTGAAGGG,0.24
16,TATATCACGTGTTTTC,0.1
17,AACGGCACGTGTTCGG,0.05
18,CCAGGCACGTGGGTGG,-0.24
19,TGATGCACGTGGCCGG,-0.15
20,TTGGTCACGTGGGTTA,0
21,GGCTTCACGTGCTGGT,0.22
22,GTCGTCACGTGGATGT,0.08
23,TGAGCCACGTGATTGT,0.15
24,TTCTACACGTGAGATG,0.43
25,ATGGGCACGTGCAGGA,-0.03

row,Sequence,relative binding free energy [kcal/mol]
1,TTCAACACGTGGGTTT,-0.04
2,ATAGGCACGTGGGCGA,-0.18
3,ATGTTCACGTGCGCTT,0.21
4,TTTGGCACGTGAAGAT,0.21
5,CGTTGCACGTGCAGGG,-0.03
6,ATGTTCACGTGTTTTG,0.1
7,AATGTCACGTGAAGTT,0.35
8,TAAAACACGTGTATGT,-0.03
9,GGCTGCACGTGGTGGT,0.02
10,ATCTGCACGTGGAAGT,0.1
11,GTTTACACGTGTGAGG,0.21
12,ATGGTCACGTGGATGC,0.11
13,ATCGACACGTGGTGTG,-0.11
14,CTGTACACGTGGGTTT,0.02
15,AAGGTCACGTGACGGG,0.2
16,GAAGACACGTGATGTT,0.23
17,GGCATCACGTGGGAAG,0.22
18,GATTACACGTGGGAGT,0.13
19,TTTTACACGTGGGCTG,-0.03
20,GTATGCACGTGCCGTT,-0.01
21,ATGGTCACGTGTCTGG,0.07
22,CGATACACGTGGAGTT,0.12
23,CGTGGCACGTGAGGTC,0.07
24,TGTATCACGTGAGCAT,0.24
25,CTGGGCACGTGTGAAG,0.04

row,Sequence,relative binding free energy [kcal/mol]
1,GTGTACACGTGCAGTG,0.01
2,AGGAACACGTGGCAGG,-0.06
3,TCAGGCACGTGAGAGT,0.24
4,TGCAGCACGTGCGGGT,-0.14
5,GGGGGCACGTGGGCTC,-0.08
6,ATCAGCACGTGGCGGG,-0.04
7,GGTTGCACGTGTGCAT,-0.05
8,GACTTCACGTGTGATT,0.49
9,TGTCGCACGTGTTTAG,-0.06
10,GGGTTCACGTGGACGC,0.36
11,TCGGGCACGTGGTAGT,-0.14
12,AGTGCCACGTGTGCGA,0
13,GTAATCACGTGGTGAA,0.13
14,TTGTTCACGTGCTTCT,0.34
15,TGTTGCACGTGGTCTA,-0.14
16,TTTCACACGTGTGCTG,0.18
17,TATTGCACGTGAGCGT,-0.11
18,ATATGCACGTGTGGAT,0.06
19,GGCGTCACGTGGAGTG,0.15
20,GTTCTCACGTGGAGGG,0.25
21,TTTCTCACGTGTTGGG,0.31
22,AGTGACACGTGGCGGG,0
23,GTGTACACGTGTGTGC,0.04
24,GATATCACGTGGAGGA,0.19
25,GTGTGCACGTGGGTTC,-0.02

row,Sequence,relative binding free energy [kcal/mol]
1,TTTAACACGTGTTGTA,-0.07
2,TGGTTCACGTGGGGTT,0.21
3,ATTAACACGTGTTATG,0
4,TTTTACACGTGTTGTC,0.1
5,TTTGCCACGTGATGTT,0.14
6,TTAATCACGTGCTATG,0.05
7,CTGGGCACGTGGAGAA,-0.01
8,TTTTCCACGTGGGGTC,-0.06
9,ATCTACACGTGTTAGG,0
10,TGTGGCACGTGCCGGC,-0.14
11,CGTGGCACGTGGATTG,-0.09
12,AAGGTCACGTGTAGGA,-0.02
13,TATGGCACGTGTCAAG,-0.02
14,TTAGCCACGTGGTAAA,0.12
15,TAGGCCACGTGTGGTG,-0.16
16,ATCGGCACGTGTTGGC,0.02
17,AAGTTCACGTGTCAGG,0.38
18,GATTTCACGTGGGACT,0.29
19,AGGATCACGTGGGAGA,-0.08
20,TGCAGCACGTGGTGAG,-0.04
21,AGAGGCACGTGGAGGA,-0.02
22,GGTGTCACGTGGTGCG,0.06
23,GGGCACACGTGGATTT,0.19
24,TGTCACACGTGTTTTT,0.08
25,CTGTACACGTGCGGTG,0.1

row,Sequence,relative binding free energy [kcal/mol]
1,ATTAGCACGTGGCGGT,-0.12
2,ATTTACACGTGTAAGT,0.16
3,TTGGACACGTGTCTAT,0.19
4,GGTATCACGTGCGGTC,0.19
5,GGAATCACGTGGAGCG,0.33
6,AGGTACACGTGTCATT,0.06
7,GTGGGCACGTGGGCCG,-0.17
8,TTTGACACGTGGTTTC,0
9,AAGGACACGTGGCTGG,0.15
10,CGATGCACGTGGGGGA,-0.21
11,TAGCTCACGTGGTAAT,0.24
12,TGCTTCACGTGTTCTG,0.14
13,AAAGGCACGTGGTTCG,-0.19
14,ATATGCACGTGATGTT,0.03
15,TTAGTCACGTGACAGT,0.21
16,ATTAGCACGTGATAGG,0.06
17,TGATGCACGTGGGTTA,-0.19
18,ATTTCCACGTGGCTTT,0.06
19,GGTGGCACGTGCTTGC,0
20,GCGTGCACGTGTCGTT,0.07
21,TAACGCACGTGGATTG,0.02
22,ATTTACACGTGATGGT,0.28
23,GGAGCCACGTGAGTTT,0.27
24,GAAGACACGTGATGGG,0.25
25,TAGATCACGTGTAGTT,0.21

row,Sequence,relative binding free energy [kcal/mol]
1,TAATTCACGTGGAGGA,0.22
2,AGGTTCACGTGTTTTC,0.33
3,ATGGACACGTGATGAA,0.25
4,TTTGGCACGTGGACGG,-0.06
5,TGCCGCACGTGGCGGG,-0.14
6,GTTGGCACGTGAACGG,0.15
7,AATCTCACGTGGGGGT,0.11
8,TGTTGCACGTGCTGAG,-0.04
9,CGTTCCACGTGAGGTG,0.21
10,GGTGCCACGTGAATGG,0.06
11,TGGGGCACGTGGCCTT,-0.22
12,TGGACCACGTGCAGGG,0.05
13,CGTGGCACGTGTGCAG,-0.17
14,GAGGTCACGTGGAAGT,0.23
15,TTTCTCACGTGTACGG,0.2
16,TGAGACACGTGTCATT,0.07
17,ATGAACACGTGTATTG,-0.01
18,GTGCACACGTGTAGGA,0.13
19,GGATGCACGTGGTTCG,0.06
20,AGAATCACGTGTATGT,0.09
21,AGGCGCACGTGGTAGT,-0.42
